Measured values taken from PubChem BioAssay AID485294 (National Center for Advancing Translational Sciences (NCATS), 2010).
Screen size: about 370,000 compounds; about 150 (0.041%) were called active. The shares of active, inactive and inconclusive entries below differ from those in the screen. The call rests on the fitted dose curve; in most records, active means well fitted inhibition curve with a large enough effect; inconclusive means small, poorly fitted or top-dose-only effect; inactive means flat fitted curve, though single readings scatter. Potencies of inconclusive entries are left out as doubtful fits.

Molecular target: Beta-lactamase (Escherichia coli (strain K12)) (UniProt P00811)
UniProt P00811, sequence (P00811 whole entry, looked up): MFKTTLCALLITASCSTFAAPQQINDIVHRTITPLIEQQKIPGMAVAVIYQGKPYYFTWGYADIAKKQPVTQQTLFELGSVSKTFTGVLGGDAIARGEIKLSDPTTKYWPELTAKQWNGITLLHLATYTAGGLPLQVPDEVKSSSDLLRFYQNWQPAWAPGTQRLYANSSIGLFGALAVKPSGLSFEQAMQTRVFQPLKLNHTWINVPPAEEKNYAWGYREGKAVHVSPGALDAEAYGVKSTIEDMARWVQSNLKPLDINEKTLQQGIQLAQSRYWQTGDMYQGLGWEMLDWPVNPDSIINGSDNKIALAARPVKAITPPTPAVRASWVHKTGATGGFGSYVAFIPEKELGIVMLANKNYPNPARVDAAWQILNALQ
Test: qHTS Inhibitors of AmpC Beta-Lactamase (assay with detergent); further: nearly all actives have a fitted effect of over 25% in size;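 on activity change, negative = inhibition: 0% = no-compound wells and -100% = no-enzyme wells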
Conditions: AmpC hydrolysis of nitrocefin, absorbance 480 nm, 0.01% Triton; activity change, negative = inhibition: at 114 µM (top of the series)
In short: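 AmpC (5.3 nM in the dispensed reagent) in 20 mM phosphate pH 7.0 with 0.01% (detergent screen) or 0.0001% Triton X-100 was preincubated with compounds for 15 min at room temperature. Nitrocefin was then added from an 800 uM solution, and hydrolysis was followed at 480 nm.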
Potency means the concentration at half of the fitted maximal effect; tags describe the fitted curve by direction and shape.

Row | SMILES | Potency | activity change, negative = inhibition
1 | CCN(c1ccccc1)S(=O)(=O)c1nnc(NC(=O)C(C)(C)C)s1 | inactive | –
2 | CN(C)c1ccc(NC(=O)CN2C(=O)CC(c3ccccc3)=Nc3ccccc32)cc1 | inconclusive [inhibitor, full curve, poor fit] | –
3 | N#Cc1nc(COc2ccccc2Cl)oc1NCc1ccc(F)cc1 | – | inactive: 3.5%
4 | CC(C)Oc1ccc(CNC(=O)CCC(=O)N2CCSc3ccccc32)cc1 | inconclusive [inhibitor, partial curve, poor fit] | –
5 | Cc1ccccc1NC(=S)NCC1CCN(C(C)c2ccccc2)C1 (stereo not drawn) | inconclusive [inhibitor, full curve, poor fit] | –
6 | CCc1ccccc1NC(=O)C1CCN(C(=O)N2CCOc3ccccc32)CC1 | inconclusive [inhibitor, partial curve, poor fit] | –
7 | Cc1ccc(-c2nn(CCC(=O)O)cc2CCC(=O)O)cc1 | inconclusive [inhibitor, full curve] | –
8 | CCOC(=O)CN(C(=O)COc1nc(-c2ccccc2)cc(C)c1C#N)c1ccccc1C | – | inactive: -3.73%
9 | Cc1ccc2c(c1)nnn2C1CCN(C(=O)C23CC4CC(CC(C4)C2)C3)CC1 | – | inactive: 0.108%
10 | COc1ccc(OCC(O)CNC(=O)c2ccccc2C(=O)O)cc1 (stereo not drawn) | inconclusive [inhibitor, full curve, poor fit] | –
11 | COc1ccc(CNC(=O)C2CCN(S(=O)(=O)c3ccc(F)cc3)CC2)cc1 | – | inactive: 6.05%
12 | CCOC(=O)c1nnn(-c2nonc2N)c1-c1ccc(OC)cc1 | inconclusive [inhibitor, full curve] | –
13 | COc1ccc(-n2c(SCCC(=O)O)nnc2-c2ccncc2)cc1 | inconclusive [inhibitor, partial curve, poor fit] | –
14 | CCOC(=O)c1ccccc1N/C=C1\CCCC1=O | inconclusive [inhibitor, partial curve, poor fit] | –
15 | CC12CCC(C(=O)N3CCC(Cc4ccccc4)CC3)(C(=O)C1=O)C2(C)C (stereo not drawn) | inconclusive [inhibitor, full curve, poor fit] | –
16 | COc1ccc2c(=O)c(-c3nc(C)cs3)coc2c1 | inconclusive [inhibitor, full curve, poor fit] | –
17 | CN(C)Cc1nc2c(c(=O)[nH]1)C1(CCCCC1)Cc1ccccc1-2 | inconclusive [inhibitor, full curve, poor fit] | –
18 | COC(=O)C1=C(C)N(c2ccc(Cl)cc2)/C(=C/c2cccs2)C1=O | inconclusive [inhibitor, single point] | –
19 | COc1ccc(NC(=O)c2cccnc2SC)cc1OC | – | inactive: -7.09%
20 | CCOC(=O)N1CCN(S(=O)(=O)c2c(C)nc3sccn3c2=O)CC1 | inconclusive [inhibitor, full curve, poor fit] | –
21 | O=C(N/N=C/c1ccccn1)c1cccc([N+](=O)[O-])c1 | – | inactive: -6.06%
22 | CCCn1c(C2CCCN2c2nc(-c3cccc(Br)c3)cs2)nc2cc(Cl)c(Cl)cc21 (stereo not drawn) | – | inactive: -14.2%
23 | CC1CCN(C(=O)c2ccc(COc3ccccc3Cl)o2)CC1 | – | inactive: -4.8%

Row | SMILES | Potency | activity change, negative = inhibition
24 | O=C(Nc1ccccc1Cl)c1cccc(NS(=O)(=O)c2ccccc2)c1 | inconclusive [inhibitor, full curve, poor fit] | –
25 | COC(=O)CNc1nc(-c2ccncc2)nc2ccccc12 | – | inactive: -0.644%
26 | N#CCCN(C(=O)COC(=O)C1=NNC(=O)CC1)c1ccccc1 | inconclusive [inhibitor, partial curve, poor fit] | –
27 | CC(C)N1C(=O)C2C(C(=O)NCc3ccccc3)C3C=CC2(O3)C1C(=O)NC(C)(C)C (stereo not drawn) | inconclusive [inhibitor, full curve, poor fit] | –
28 | COc1ccc(N2CCN(C(=O)c3ccc(NS(=O)(=O)c4ccccc4)cc3)CC2)cc1 | – | inactive: -3.55%
29 | CCOc1ccc2nc(NC(=O)CN3C(=O)NC4(CCCC4)C3=O)sc2c1 | inconclusive [inhibitor, full curve] | –
30 | O=C(CS(=O)(=O)c1cccc2nsnc12)Nc1ccc(F)cc1 | – | inactive: 1.12%
31 | Nc1nc(SCC(=O)Nc2ncc(Cl)cc2Cl)n[nH]1 | – | inactive: 1.01%
32 | CN1CCN(c2ccncc2S(=O)(=O)N2CCCCC2)CC1 | inconclusive [inhibitor, full curve, poor fit] | –
33 | Cc1cccc(C(=O)Nc2ccccc2C(=O)OCC(=O)Nc2ccc(C#N)cc2)c1 | – | inactive: -7.95%
34 | Cc1nnc(SCC(=O)Nc2ncc(Cc3ccc(F)cc3)s2)n1N | inconclusive [inhibitor, full curve, poor fit] | –
35 | CSc1nc(-c2ccc(Cl)cc2)nn1S(=O)(=O)c1ccccc1 | – | inactive: -3.36%
36 | COCc1[nH]nc2c1C1(CCC3(CC1)OCCO3)C(C#N)=C(N)O2 | inconclusive [inhibitor, partial curve, poor fit] | –
37 | Cc1ccc2c(=O)oc(N(C)C)nc2c1 | inconclusive [inhibitor, partial curve] | –
38 | Cc1ccc(S(=O)(=O)N2CCCC2)cc1[N+](=O)[O-] | – | inactive: -14.5%
39 | CCOC(=O)Cc1csc(SCC(=O)c2c(N)n(CC(C)C)c(=O)n(C)c2=O)n1 | inconclusive [inhibitor, partial curve, poor fit] | –
40 | Cc1csc(NC(=O)CSc2nnc3ncccn23)n1 | inconclusive [inhibitor, full curve, poor fit] | –
41 | CCOc1ccc(C(=O)Nc2c3c(nn2-c2ccc(C)cc2)CS(=O)C3)cc1OCC (stereo not drawn) | inconclusive [inhibitor, full curve, poor fit] | –
42 | CCCCOc1ccc(Cn2c(=O)oc3ccc(C)cc32)cc1 | inconclusive [inhibitor, single point] | –
43 | Cc1ccccc1CNC(=O)CCNS(=O)(=O)c1ccc(OC(F)(F)F)cc1 | – | inactive: 1.77%
44 | Cc1ccc(Cl)cc1N1CCN(C(=O)C2CCN(S(=O)(=O)c3cccnc3)CC2)CC1 | inconclusive [inhibitor, single point] | –
45 | Cc1ccc(C(=O)C(=S)N2CCOCC2)cc1 | inconclusive [inhibitor, single point] | –
46 | CCCCCCn1c(CN2CCCCC2C)nc2c1c(=O)n(C)c(=O)n2C (stereo not drawn) | inconclusive [inhibitor, full curve] | –

Row | SMILES | Potency | activity change, negative = inhibition
47 | CN(CC(=O)Nc1ccc(Cl)cc1)C(=O)c1ccc(NS(=O)(=O)c2ccc3[nH]c(=O)[nH]c3c2)cc1 | inconclusive [inhibitor, full curve, poor fit] | –
48 | CCOC(=O)C1CCN(C(=O)CCc2c(C)nc3c(-c4ccc(F)cc4)c(C)nn3c2C)CC1 | inconclusive [inhibitor, full curve, poor fit] | –
49 | Cc1ccc(CCNC(=O)Cn2ncc3c([nH]c4ccc(C)cc43)c2=O)cc1 | – | inactive: 1.81%
50 | COc1cc(C2N(c3cccc(Cl)c3)C(=O)C3CCCN32)cc(OC)c1OC (stereo not drawn) | inconclusive [inhibitor, partial curve, poor fit] | –
51 | O=C(N/N=C/c1ccccn1)c1ccc(Br)cc1 | inconclusive [inhibitor, partial curve, poor fit] | –
52 | Cc1cc(C)cc(OCC(=O)N/N=C\c2cn(C)nc2C)c1 | inconclusive [inhibitor, full curve, poor fit] | –
53 | O=C(C1CCCN1S(=O)(=O)c1cccc2cccnc12)N1CCc2ccccc2C1 (stereo not drawn) | inconclusive [inhibitor, full curve] | –
54 | CC(NC(=O)C1C(=O)N(CCO)C2(C)CC1c1ccccc1O2)c1ccccc1 (stereo not drawn) | – | inactive: -0.813%
55 | O=C(CN1C(=O)NC2(CCCCC2)C1=O)Nc1ccc(N2CCOCC2)cc1 | inconclusive [inhibitor, full curve, poor fit] | –
56 | CCc1ccc(NC(=O)C/C(C)=N/NC(=O)OCc2ccc(OC)cc2)cc1 | – | inactive: -13.4%
57 | Cc1cc(-c2n[nH]c(=S)n2Cc2ccco2)n(C)n1 | inconclusive [inhibitor, partial curve, poor fit] | –
58 | CCOC(=O)N1CCC(N2C(=O)c3ccccc3C2Nc2cc(OC)c(OC)c(OC)c2)CC1 (stereo not drawn) | inconclusive [inhibitor, full curve, poor fit] | –
59 | COc1ccccc1N1CCN(c2ccnc3cc(Cl)ccc23)CC1 | – | inactive: -4.75%
60 | COc1ccc(C)cc1NC(=O)C1CCN(S(=O)(=O)c2ccc3c(c2)CCCN3C(C)=O)CC1 | – | inactive: 3.16%
61 | Cc1ccc(CNC(=O)c2cc(S(=O)(=O)N3CCCC3)cn2C)cc1 | inconclusive [inhibitor, partial curve] | –
62 | COc1cc(C(=O)OC(C)CN2C(C)CCCC2C)cc(OC)c1OC (stereo not drawn) | inconclusive [inhibitor, partial curve] | –
63 | Cc1ccc(N2C(=O)c3ccccc3C2Nc2ccccc2)nc1 (stereo not drawn) | inconclusive [inhibitor, partial curve] | –
64 | CC(=O)Nc1ccc2sc(NC(=O)CN3CCOCC3)nc2c1 | inconclusive [inhibitor, full curve, poor fit] | –
65 | Cc1oc(-c2ccc(Cl)cc2)nc1CS(=O)CC(=O)NC1CCCC1 (stereo not drawn) | – | inactive: -7.87%
66 | CCc1ccc(C(=O)c2cn(CC(=O)Nc3cc(OC)ccc3OC)c3ccc(C)cc3c2=O)cc1 | inconclusive [inhibitor, single point] | –
67 | Clc1ccc(-c2cnn3c(-c4ccncc4)ccnc23)cc1 | inconclusive [inhibitor, full curve, poor fit] | –
68 | CC(=O)c1sc(C(=O)O)c(-c2ccco2)c1-c1ccco1 | – | inactive: -6.85%
